Measurements as given in the supplement of paper PMC10724272.

Assays:
Experiment in all cases: CLSI broth microdilution.
itraconazole = compound: CCC(C)n1ncn(-c2ccc(N3CCN(c4ccc(OCC5COC(Cn6cncn6)(c6ccc(Cl)cc6Cl)O5)cc4)CC3)cc2)c1=O [itraconazole]
micafungin = compound: CCCCCOc1ccc(-c2cc(-c3ccc(C(=O)N[C@H]4C[C@@H](O)[C@@H](O)NC(=O)[C@@H]5[C@@H](O)[C@@H](C)CN5C(=O)[C@H]([C@H](O)CC(N)=O)NC(=O)[C@H]([C@H](O)[C@@H](O)c5ccc(O)c(OS(=O)(=O)O)c5)NC(=O)[C@@H]5C[C@@H](O)CN5C(=O)[C@H]([C@@H](C)O)NC4=O)cc3)no2)cc1 [micafungin]
anidulafungin = compound: CCCCCOc1ccc(-c2ccc(-c3ccc(C(=O)N[C@H]4C[C@@H](O)[C@@H](O)NC(=O)[C@@H]5[C@@H](O)[C@@H](C)CN5C(=O)[C@H]([C@@H](C)O)NC(=O)[C@H]([C@H](O)[C@@H](O)c5ccc(O)cc5)NC(=O)[C@@H]5C[C@@H](O)CN5C(=O)[C@H]([C@@H](C)O)NC4=O)cc3)cc2)cc1 [anidulafungin]
posaconazole = compound: CC[C@@H]([C@H](C)O)n1ncn(-c2ccc(N3CCN(c4ccc(OC[C@@H]5CO[C@@](Cn6cncn6)(c6ccc(F)cc6F)C5)cc4)CC3)cc2)c1=O [posaconazole]
caspofungin = compound: CC[C@H](C)C[C@H](C)CCCCCCCCC(=O)N[C@H]1C[C@@H](O)[C@@H](NCCN)NC(=O)[C@@H]2[C@@H](O)CCN2C(=O)[C@H]([C@H](O)CCN)NC(=O)[C@H]([C@H](O)[C@@H](O)c2ccc(O)cc2)NC(=O)[C@@H]2C[C@@H](O)CN2C(=O)[C@H]([C@@H](C)O)NC1=O [caspofungin]
voriconazole = compound: C[C@@H](c1ncncc1F)[C@](O)(Cn1cncn1)c1ccc(F)cc1F [voriconazole]
amphotericin B = compound: C[C@@H]1[C@H](O)[C@@H](C)/C=C/C=C/C=C/C=C/C=C/C=C/C=C/[C@H](O[C@@H]2O[C@H](C)[C@@H](O)[C@H](N)[C@@H]2O)C[C@@H]2O[C@](O)(C[C@@H](O)C[C@@H](O)[C@H](O)CC[C@@H](O)C[C@@H](O)CC(=O)O[C@H]1C)C[C@H](O)[C@H]2C(=O)O [amphotericin B]
flucytosine = compound: Nc1[nH]c(=O)ncc1F [flucytosine]
fluconazole = compound: OC(Cn1cncn1)(Cn1cncn1)c1ccc(F)cc1F [fluconazole]

With “Candida tropicalis isolate 386 (ERG11 copies: 2, Erg11p: no key change)” the MIC (itraconazole) was 0.25 mg/L [S], the MIC (micafungin) was 0.06 mg/L [S] and the MIC (anidulafungin) was 0.12 mg/L [S]. The MIC (posaconazole) was 0.12 mg/L [S], the MIC (caspofungin) was 0.03 mg/L [S] and the MIC (voriconazole) was 0.12 mg/L [S]. For the same test system, the MIC (amphotericin B) was 1 mg/L [S], the MIC (flucytosine) was at most 0.06 mg/L [S] and the MIC (fluconazole) was 2 mg/L [S].
“Candida tropicalis isolate 387 (ERG11 copies: 2, Erg11p: no key change)” showed an MIC (itraconazole) of 0.06 mg/L [S], an MIC (micafungin) of 0.015 mg/L [S] and an MIC (anidulafungin) of 0.03 mg/L [S]. The MIC (posaconazole) was 0.12 mg/L [S], the MIC (caspofungin) was 0.03 mg/L [S] and the MIC (voriconazole) was 0.03 mg/L [S]. It also gave an MIC (amphotericin B) of 1 mg/L [S], an MIC (flucytosine) of at most 0.06 mg/L [S] and an MIC (fluconazole) of 1 mg/L [S].
“Candida tropicalis isolate 388 (ERG11 copies: 2, Erg11p: no key change)” was tested, and the MIC (itraconazole) was 0.5 mg/L [S], the MIC (micafungin) was 0.03 mg/L [S] and the MIC (anidulafungin) was 0.06 mg/L [S]. It also gave an MIC (posaconazole) of 1 mg/L [R], an MIC (caspofungin) of 0.06 mg/L [S] and an MIC (voriconazole) of 0.12 mg/L [S]. For the same test system, the MIC (amphotericin B) was 0.5 mg/L [S], the MIC (flucytosine) was at most 0.06 mg/L [S] and the MIC (fluconazole) was 2 mg/L [S].
With “Candida tropicalis isolate 389 (ERG11 copies: 2, Erg11p: no key change)” the MIC (itraconazole) was 0.25 mg/L [S], the MIC (micafungin) was 0.03 mg/L [S] and the MIC (anidulafungin) was 0.12 mg/L [S]. It also gave an MIC (posaconazole) of 0.25 mg/L [S], an MIC (caspofungin) of 0.06 mg/L [S] and an MIC (voriconazole) of 0.12 mg/L [S]. It also gave an MIC (amphotericin B) of 1 mg/L [S], an MIC (flucytosine) of at most 0.06 mg/L [S] and an MIC (fluconazole) of 2 mg/L [S].
“Candida tropicalis isolate 390 (ERG11 copies: 2, Erg11p: no key change)” was tested, and the MIC (itraconazole) was 0.25 mg/L [S], the MIC (micafungin) was 0.015 mg/L [S] and the MIC (anidulafungin) was at most 0.015 mg/L [S]. It also gave an MIC (posaconazole) of 0.25 mg/L [S], an MIC (caspofungin) of 0.03 mg/L [S] and an MIC (voriconazole) of 0.25 µg/mL. It also gave an MIC (amphotericin B) of 1 mg/L [S], an MIC (flucytosine) of at most 0.06 mg/L [S] and an MIC (fluconazole) of 2 mg/L [S].
“Candida tropicalis isolate 391 (ERG11 copies: 2, Erg11p: Y132F, S154F (homozygous))” showed an MIC (itraconazole) of 0.5 mg/L [S], an MIC (micafungin) of 0.03 mg/L [S] and an MIC (anidulafungin) of 0.03 mg/L [S]. It also gave an MIC (posaconazole) of 0.5 mg/L [R], an MIC (caspofungin) of 0.03 mg/L [S] and an MIC (voriconazole) of 2 mg/L [R]. The MIC (amphotericin B) was 1 mg/L [S], the MIC (flucytosine) was at most 0.06 mg/L [S] and the MIC (fluconazole) was 64 mg/L [R].
In the case of “Candida tropicalis isolate 392 (ERG11 copies: 2, Erg11p: no key change)”, the MIC (itraconazole) is reported as 0.12 mg/L [S], the MIC (micafungin) is reported as 0.03 mg/L [S] and the MIC (anidulafungin) is reported as 0.12 mg/L [S]. It also gave an MIC (posaconazole) of 0.12 mg/L [S], an MIC (caspofungin) of 0.06 mg/L [S] and an MIC (voriconazole) of 0.06 mg/L [S]. The MIC (amphotericin B) was 1 mg/L [S], the MIC (flucytosine) was at most 0.06 mg/L [S] and the MIC (fluconazole) was 1 mg/L [S].
For “Candida tropicalis isolate 393 (ERG11 copies: 2, Erg11p: no key change)”, the MIC (itraconazole) was 0.25 mg/L [S], the MIC (micafungin) was 0.03 mg/L [S] and the MIC (anidulafungin) was at most 0.015 mg/L [S]. The MIC (posaconazole) was 0.25 mg/L [S], the MIC (caspofungin) was 0.03 mg/L [S] and the MIC (voriconazole) was 0.25 µg/mL. The MIC (amphotericin B) was 0.5 mg/L [S], the MIC (flucytosine) was at most 0.06 mg/L [S] and the MIC (fluconazole) was 2 mg/L [S].
For “Candida tropicalis isolate 394 (ERG11 copies: 2, Erg11p: no key change)”, the MIC (itraconazole) was 0.12 mg/L [S], the MIC (micafungin) was 0.015 mg/L [S] and the MIC (anidulafungin) was 0.06 mg/L [S]. For the same test system, the MIC (posaconazole) was 0.03 mg/L [S], the MIC (caspofungin) was 0.03 mg/L [S] and the MIC (voriconazole) was at most 0.008 mg/L [S]. The MIC (amphotericin B) was 0.5 mg/L [S], the MIC (flucytosine) was at most 0.06 mg/L [S] and the MIC (fluconazole) was 0.25 mg/L [S].
Test System “Candida tropicalis isolate 395 (ERG11 copies: 2, Erg11p: no key change)” has an MIC (itraconazole) of 0.12 mg/L [S], an MIC (micafungin) of 0.03 mg/L [S] and an MIC (anidulafungin) of 0.06 mg/L [S]. It also gave an MIC (posaconazole) of 0.12 mg/L [S], an MIC (caspofungin) of 0.06 mg/L [S] and an MIC (voriconazole) of 0.06 mg/L [S]. The MIC (amphotericin B) was 1 mg/L [S], the MIC (flucytosine) was at most 0.06 mg/L [S] and the MIC (fluconazole) was 1 mg/L [S].
In the case of “Candida tropicalis isolate 396 (ERG11 copies: 2, Erg11p: Y132F, S154F (heterozygous))”, the MIC (itraconazole) is reported as 0.5 mg/L [S], the MIC (micafungin) is reported as 0.03 mg/L [S] and the MIC (anidulafungin) is reported as 0.25 mg/L [S]. The MIC (posaconazole) was 0.5 mg/L [R], the MIC (caspofungin) was 0.03 mg/L [S] and the MIC (voriconazole) was 2 mg/L [R]. For the same test system, the MIC (amphotericin B) was 0.5 mg/L [S], the MIC (flucytosine) was 0.12 mg/L [S] and the MIC (fluconazole) was 32 mg/L [R].
“Candida tropicalis isolate 397 (ERG11 copies: 7, Erg11p: Y132F, S154F (heterozygous))” showed an MIC (itraconazole) of 1 mg/L [R], an MIC (micafungin) of 0.03 mg/L [S] and an MIC (anidulafungin) of 0.12 mg/L [S]. It also gave an MIC (posaconazole) of 1 mg/L [R], an MIC (caspofungin) of 0.06 mg/L [S] and an MIC (voriconazole) of at least 8 mg/L [R]. For the same test system, the MIC (amphotericin B) was 0.5 mg/L [S], the MIC (flucytosine) was at most 0.06 mg/L [S] and the MIC (fluconazole) was 512 mg/L [R].
“Candida tropicalis isolate 398 (ERG11 copies: 2, Erg11p: Y132F, S154F (heterozygous))” gave an MIC (itraconazole) of 0.25 mg/L [S], an MIC (micafungin) of 0.03 mg/L [S] and an MIC (anidulafungin) of 0.03 mg/L [S]. It also gave an MIC (posaconazole) of 0.12 mg/L [S], an MIC (caspofungin) of 0.03 mg/L [S] and an MIC (voriconazole) of 1 mg/L [R]. For the same test system, the MIC (amphotericin B) was 1 mg/L [S], the MIC (flucytosine) was at most 0.06 mg/L [S] and the MIC (fluconazole) was 16 mg/L [R].
“Candida tropicalis isolate 399 (ERG11 copies: 2, Erg11p: no key change)” gave an MIC (itraconazole) of at least 16 mg/L [R], an MIC (micafungin) of 0.03 mg/L [S] and an MIC (anidulafungin) of 0.03 mg/L [S]. For the same test system, the MIC (posaconazole) was at least 8 mg/L [R], the MIC (caspofungin) was 0.03 mg/L [S] and the MIC (voriconazole) was at least 8 mg/L [R]. For the same test system, the MIC (amphotericin B) was 1 mg/L [S], the MIC (flucytosine) was at most 0.06 mg/L [S] and the MIC (fluconazole) was 256 mg/L [R].
“Candida tropicalis isolate 400 (ERG11 copies: 2, Erg11p: no key change)” showed an MIC (itraconazole) of 0.5 mg/L [S], an MIC (micafungin) of 0.06 mg/L [S] and an MIC (anidulafungin) of 0.03 mg/L [S]. It also gave an MIC (posaconazole) of 0.5 mg/L [R], an MIC (caspofungin) of 0.03 mg/L [S] and an MIC (voriconazole) of 0.25 µg/mL. The MIC (amphotericin B) was 1 mg/L [S], the MIC (flucytosine) was at most 0.06 mg/L [S] and the MIC (fluconazole) was 2 mg/L [S].
With “Candida tropicalis isolate 401 (ERG11 copies: 10, Erg11p: Y132F, S154F (heterozygous))” the MIC (itraconazole) was 1 mg/L [R], the MIC (micafungin) was 0.03 mg/L [S] and the MIC (anidulafungin) was 0.06 mg/L [S]. It also gave an MIC (posaconazole) of 2 mg/L [R], an MIC (caspofungin) of 0.03 mg/L [S] and an MIC (voriconazole) of at least 8 mg/L [R]. For the same test system, the MIC (amphotericin B) was 2 mg/L [S], the MIC (flucytosine) was at most 0.06 mg/L [S] and the MIC (fluconazole) was 512 mg/L [R].

MIC of invasive clinical C. tropicalis isolates, CLSI broth microdilution (fluconazole 0.12-256 mg/L, up to 1,024 for the azole-resistant cluster and its neighbour group; other ranges not stated); higher = less susceptible. Call: susceptible or wild type [S] / resistant or non-wild type [R] by CLSI breakpoints or cut-offs; intermediate and dose-dependent carry no call. '<=' and '>=' at the end values are inferred; the source marks only some of them. Isolates are numbered anew.
